This is one part of the list. Further columns of the screen follow, without active or inactive calls.

This assay can be described thus: compounds boosting herpes simplex virus growth – fold increase, host cell viability (AID 1956). Further: tested in PC3 cells. To be noted: HSV replication augmentation in cells; fold increase: measured here: primary screen fold increase 10 uM, at 10 µM, stronger effect = higher value; viability: measured here: host cell viability series, at 25 µM, stronger effect = lower value.
Broadly, the viability is a read-out of living cells in per cent, often relative to untreated cells. On to `CCN1CCN(C(=S)NCc2ccc(C)cc2)CC1`, for which the fold increase was 1.33 and the viability turned out to be 98.5%.
Regarding `O=C(NCCN1C(=O)C2C3C=CC(C3)C2C1=O)Nc1ccccc1` (centres undefined), the fold increase was 1.33 and the viability amounted to 102%.
In the same order, the values of `CC(=O)C1=C(c2ccc(Br)cc2)C(=O)c2ccccc2C1=O` are 1.82 and 13.7%.
For `Cn1c(N)c(N=O)c(=O)n(C)c1=O`, the fold increase came to 1.36 and the viability was found to be 90.5%.
As for `COC(=O)C1=NN(C(=O)c2ccc(Cl)cc2)C(O)(c2ccccc2)C1` (centres undefined), the fold increase is 1.48 and the viability is 96.4%.
Consider `CCCCCCc1cc2cc(-c3nnc(-c4cc(OC)c(OC)c(OC)c4)o3)c(=O)oc2cc1O`, for which the fold increase came out at 2.63 and the viability came to 56.7%.
`COc1ccc(Nc2nnc(SCC(=O)Nc3cc(C)on3)s2)cc1` came in with a fold increase of 1.12.
With `O=C1OCC/C1=C\c1ccc2c(c1)OCO2`, the fold increase was 1.35 and the viability came to 91.5%.
For `CCOC(=O)CC1C(=O)NCCN1c1nc2ccc(C)cn2c(=O)c1/C=C1\SC(=S)N(CC(C)C)C1=O` (centres undefined), the fold increase amounted to 7.88 and the viability amounted to 63.2%.
For `O=C(COc1ccccc1)Nc1nc(-c2ccc(S(=O)(=O)N3CCOCC3)cc2)cs1`, the fold increase came to 1.12.
On to `CCCn1c(=N)n(CC(O)c2ccco2)c2ccccc21` (centres undefined), for which the fold increase stood at 1.27 and the viability worked out at 99.3%.
Regarding `O=C(O)c1cccc(Cn2c(Cl)c(/C=N/NC(=O)c3cc4ccccc4cc3O)sc2=O)c1`, the fold increase is 1.43.
`CCCCCN1C=CC=C/C1=C\C=C(C#N)C#N`: the fold increase was found to be 3.03 and the viability worked out at 97.2%.
On to `O=C(c1ccc(Cl)cc1)C(Cn1cncn1)C(Sc1ccccc1)c1ccccc1` (centres undefined), for which the fold increase was determined as 1.2.
Take `CCCN1C(=O)/C(=C/c2c(N3CCNC(=O)C3CC(=O)OC)nc3c(C)cccn3c2=O)SC1=S` (centres undefined): the fold increase amounted to 8.68.
As to `CCc1ccc(C2CC(c3cccc(Cl)c3)n3nc(N)nc3N2)cc1` (centres undefined), the fold increase came to 1.41 and the viability turned out to be 78.8%.
`COc1ccc2nc3oc(C(=O)N4CCN(c5ccccc5F)CC4)cc3cc2c1`: the fold increase stood at 1.09.
On to `OCCN(CCO)Cc1ccc(Br)cc1`, for which the fold increase turned out to be 1.33 and the viability is 98.4%.
`CC(=O)Nc1ccc2nc3c(=O)n(C)c(=O)n(C)c3nc2c1`: the fold increase was determined as 1.42 and the viability amounted to 90.7%.
For the compound `CCC(=O)Nc1cccc(-c2cn3ccccc3n2)c1`, the fold increase came out at 1.32 and the viability is 93.6%.
For `CCOC(=O)C1=C(C)NC(=O)C1CC(=O)Nc1ccccc1` (centres undefined), the fold increase amounted to 2.29 and the viability was 92.9%.
Compound `COc1ccc2cc3cc(C(=O)Nc4ccccc4N4CCN(C)CC4)oc3nc2c1` had a fold increase of 1.15.
For `N#CC1(C#N)C(c2ccccc2)OC23CCCCC2C1(C#N)C(=N)O3` (centres undefined), the fold increase is 1.39 and the viability amounted to 99.8%.
In the same order, the values of `O=C(Cn1cccc1)N1CCN(C(c2ccccc2)c2ccccc2)CC1` are 1.4 and 99.4%.
In the same order, the values of `N#C/C(=C/c1ccc(N2CCCCC2)o1)C(=O)Nc1ccc(Cl)cc1` are 6.56 and 92.9%.
Consider `COCCN1C(=O)/C(=C/c2ccc(N3CCCC3)cc2)SC1=S`, for which the fold increase worked out at 9.62 and the viability stood at 91%.
For `Cc1nn(C)c(C)c1N1C(=O)c2cccc3c(N)ccc(c23)C1=O`, the fold increase is 7.7 and the viability was 96.2%.
Take `CCN(CC)CCN1CCn2c3c(c4cc(C)ccc42)CCCC31` (centres undefined): the fold increase stood at 1.49 and the viability was found to be 81.4%.
Regarding `COc1ccc(C(=O)Nn2c(SCC(=O)NC3CCCC3)nc3ccccc3c2=O)cc1`, the fold increase was found to be 1.35 and the viability worked out at 93%.
With `CCOC(=O)C1CCN(CCC(=O)Nc2ccccc2Cl)CC1`, the fold increase amounted to 1.33 and the viability was determined as 91%.
In the case of `COCCn1cc(C(=O)N2CCC(C)CC2)c2c3ccccc3n(C)c2c1=O`, the fold increase was 1.37 and the viability was 109%.
In the same order, the values of `CCOC(=O)c1c(NC(=O)c2nn(CC)cc2Br)sc2c1CCCCC2` are 1.39 and 80.8%.
For `CCN(CC)c1ccc2cc(-c3nnc(-c4ccncc4)o3)c(=O)oc2c1`, the fold increase amounted to 6.24.
The compound `O=C(Nc1nnc(COc2ccc(Cl)cc2)s1)c1cccs1` came in with a fold increase of 1.18.
As to `Nc1nc(Br)c2c(F)cccc2c1-c1ccc(F)cc1`, the fold increase amounted to 1.36 and the viability was 101%.
In the same order, the values of `O=C(c1cccs1)N(Cc1ccco1)C1CCS(=O)(=O)C1` (centres undefined) are 1.36 and 101%.
With `CCN(CC)c1ccc2cc(-c3nnc(-c4ccccc4)o3)c(=O)oc2c1`, the fold increase was determined as 2.02 and the viability amounted to 91.6%.
`CCCN(CCC)c1ccc(/C=C/c2ccc3cc(OCC)ccc3n2)cc1` returned a fold increase of 1.55.
With `CCOc1ccc(C2CC(c3ccc(CC)cc3)Nc3nc(N)nn32)cc1` (centres undefined), the fold increase was determined as 1.34 and the viability turned out to be 97.1%.
`CCOC(=O)c1ccc(NC(=S)Nc2ccccn2)cc1` had a fold increase of 1.25.
As for `CC(=O)CSc1nc2cc3c(cc2cc1C#N)OCCO3`, the fold increase is 1.54 and the viability is 56%.
In the same order, the values of `CCN(CC)c1ccc2cc(C(N)=O)c(=N)oc2c1` are 2.74 and 96.6%.
On to `CCCCOC(=O)CCN1C(=O)/C(=C2\SC(=S)N(CCC(=O)OCCCC)C2=O)SC1=S`, for which the fold increase stood at 1.49.
The same measure, in the same setting: the result for `CCOC(=O)C1=NN(C(=O)c2ccccc2)C(O)(c2ccc(C)cc2)C1` (centres undefined) reads 1.32.
In the case of `COc1ccc(N2C(=O)CC(N(CCc3ccccc3)C(=O)c3ccccc3)C2=O)cc1` (centres undefined), the fold increase came out at 1.37 and the viability came out at 98.9%.
In the same order, the values of `N#Cc1c(C(F)(F)F)cc(-c2ccccc2)nc1SCc1nc(N)nc(N2CCOCC2)n1` are 1.8 and 83.2%.
Regarding `CC(=O)/C(C#N)=C1\NC(=O)C(Cc2ccccc2C)S1` (centres undefined), the fold increase was 1.32.
As for `COc1ccccc1N1C(=N)S/C(=C\c2ccc(-c3ccccc3C(=O)O)o2)C1=O`, the fold increase stood at 1.37.
On to `CN(C)c1ccc(C2N(c3ccc(Cl)cc3)C(=O)C3CCCN32)cc1` (centres undefined), for which the fold increase came out at 1.32 and the viability came to 103%.
For the compound `Cc1cc(O)c(C(C)C)cc1N=Cc1ccccc1O`, the fold increase turned out to be 1.61 and the viability is 74.6%.
`N#C/C(=C/c1ccc(-c2cc(C(=O)O)cc(C(=O)O)c2)o1)c1nc2ccccc2s1` gave a fold increase of 2.08.
For `COC(=O)c1cccnc1N1CCN(c2ccccc2F)CC1`, the fold increase is 1.37 and the viability stood at 96%.
In the same order, the values of `COc1ccc(N=Cc2c(O)n(-c3cccc(C)n3)c(=O)c3ccccc23)c(OC)c1` are 3.65 and 96.6%.
`O=C1c2cccc3c([N+](=O)[O-])ccc(c23)C(=O)N1CC1CCCO1` (centres undefined): the fold increase is 3.52 and the viability worked out at 69.3%.
`COc1cccc(N2CCN(Cc3nc4scc(-c5ccccc5)c4c(=O)[nH]3)CC2)c1`: the fold increase was determined as 1.75 and the viability stood at 55.1%.
Consider `CCOC(=O)C(NC(=O)c1cccc(Cl)c1)(Nc1sc2c(c1C(N)=O)CCC2)C(F)(F)F` (centres undefined), for which the fold increase came to 1.42 and the viability was 97.6%.
Take `CCCNC(=O)Cn1cnc2sc(C(=O)Nc3ccc4c(c3)OCO4)c(C)c2c1=O`: the fold increase was 1.32.
As for `N#Cc1ccc(-c2ccc(Cl)cc2)nc1SCC(=O)c1cccc(Cl)c1`, the fold increase is 1.57 and the viability amounted to 48.4%.
In the case of `CCn1c(/C=C/N(C)c2ccccc2)[n+](CC)c2ccc(Cl)cc21`, the fold increase is 1.36 and the viability is 33%.
`CCOC(=O)c1cnc2c(OC)cccc2c1N1CCN(c2ccc(OC)cc2)CC1` showed a fold increase of 1.15.
For the compound `O=C(CN(Cc1cccs1)C(=O)CNS(=O)(=O)c1ccc(F)cc1)NCC1CCCO1` (centres undefined), the fold increase is 1.64 and the viability is 92.7%.
On to `CN(/C=C/C(=C/C=[N+](C)c1ccccc1)OCCCS(=O)(=O)[O-])c1ccccc1`, for which the fold increase was 1.96 and the viability was found to be 105%.
For the compound `CN(C)c1ccc(/C=C/C(O)=C2/C(=O)N(C)C3(C)CC2c2ccccc2O3)cc1` (centres undefined), the fold increase stood at 1.33.
Regarding `CN1/C(=C\C=C(C#N)C#N)C(C)(C)c2ccccc21`, the fold increase came to 7.58 and the viability is 101%.
`CC(C)=CCC/C(C)=C/C=N/NC(=O)c1ccccc1[N+](=O)[O-]`: the fold increase amounted to 1.33 and the viability was found to be 94.5%.
Regarding `Cn1nc(-c2ccccc2)c2nc3ccccc3nc21`, the fold increase is 1.94 and the viability came to 98%.
As for `N#CC1=C(N)SC(N)=C(C#N)C1c1c(Cl)cccc1Cl`, the fold increase is 1.41 and the viability turned out to be 104%.
For the compound `Cc1cccc(NC(=O)CN2C(=O)N/C(=C/c3ccc(C)o3)C2=O)c1`, the fold increase worked out at 1.43 and the viability amounted to 94.1%.
In the same order, the values of `N#C/C(=C\c1ccc(Sc2ccc(Cl)cc2)o1)c1nc2ccccc2[nH]1` are 1.68 and 81.2%.
Take `C=CCn1c(=O)/c(=C/c2cc(OC)c(OC)c(OC)c2)s/c1=C(/C#N)c1nc2ccccc2n1C`: the fold increase was 4.6 and the viability was 72.9%.
On to `Oc1ccc2ccc3cccc[n+]3c2c1`, for which the fold increase stood at 2.92 and the viability came to 96.2%.
Regarding `COC(=O)C(NC(C)=O)(Nc1ccc(C)cn1)C(F)(F)F` (centres undefined), the fold increase was determined as 1.38 and the viability is 92.4%.
`O=C(c1ccccc1)c1ccc(O)cc1O`: the fold increase came to 1.83 and the viability is 103%.
In the same order, the values of `NS(=O)(=O)c1ccc(N=Nc2c[nH]c(=O)c(O)c2)cc1` are 1.53 and 90.8%.
In the same order, the values of `COc1ccc(S(=O)(=O)/N=C2/NC(=O)/C(=C\c3ccco3)S2)cc1` are 1.33 and 93.3%.
`CCOC(=O)C(C(=O)OCC)c1cc(Br)c2noc3c2c1C(=O)c1ccccc1-3`: the fold increase was 2.98 and the viability came out at 65.1%.
In the same order, the values of `CCOC(=O)c1cnc2c(F)ccc(F)c2c1Sc1ccccc1` are 1.36 and 89.6%.
In the same order, the values of `C=CCN1C(=O)C(CC(=O)O)SC1=Nc1ccc(C)cc1` (centres undefined) are 1.35 and 97%.
As to `O=C(/C=C/c1cn(CC(O)CN2CCOCC2)c2ccccc12)c1cccs1` (centres undefined), the fold increase amounted to 1.72 and the viability came out at 90.1%.
As for `COC(=O)c1cc2c(C)cc3ccc(C)cn3c-2c1C(=O)OC`, the fold increase worked out at 1.35 and the viability came to 91.5%.
In the same order, the values of `CCC1=NN2C(=N)/C(=C\c3ccc(SCc4ccco4)o3)C(=O)N=C2S1` are 1.48 and 103%.
In the same order, the values of `NCCNc1ccc([N+](=O)[O-])cc1` are 1.37 and 100%.
On to `CCN(CC)c1ccc(/C=C(\C#N)C(=O)NCc2ccco2)cc1`, for which the fold increase amounted to 2.55 and the viability came out at 93.4%.
Compound `CCCN1C(=O)S/C(=C\c2ccc(N3CCOCC3)cc2C)C1=O` registered a fold increase of 2.14.
In the case of `O=C(Nc1nnc(COc2ccccc2F)s1)Nc1ccccc1F`, the fold increase was determined as 1.39 and the viability turned out to be 99.6%.
`CC(=O)/C(N=Nc1cc(C)ccc1O)=C(\C)O`: the fold increase is 1.38 and the viability was determined as 93.6%.
In the same order, the values of `C=C1CCN([C@@H](C)C(=O)NCCCCCC)S(=O)(=O)c2ccccc21` are 1.34 and 99.2%.
With `O=C(N/N=C/c1c(O)n(-c2ccc(Cl)cn2)c(=O)c2ccccc12)c1ccncc1`, the fold increase was 1.91 and the viability was 96.4%.
With `COc1ccccc1N=Cc1c(C)c(C#N)c2[nH]c3ccccc3n2c1=O`, the fold increase was found to be 1.34 and the viability was determined as 102%.
Take `Cc1ccc(N2C(=O)[C@@H]3[C@H](C2=O)C2c4ccccc4C=CN2[C@@H]3C(=O)c2ccco2)cc1` (some centres undefined): the fold increase was 1.35.
As to `CC(=O)/C(C#N)=C1\NC(=O)C(Cc2ccc(F)cc2)S1` (centres undefined), the fold increase was determined as 1.39 and the viability is 96.3%.
As to `Nc1c(C(=O)c2ccc(Cl)cc2)sc2nsc(SCCN3CCOCC3)c12`, the fold increase is 2.98 and the viability was found to be 97.3%.
For `CCOC(=O)c1c(-c2ccccc2)csc1NC(=O)/C(C#N)=C/c1ccc(O)c(OC)c1`, the fold increase was found to be 5.9 and the viability came to 90.3%.
Take `N#Cc1cccc(NC(=O)CSc2ccc3c4c(cccc24)C(=O)c2ccccc2-3)c1`: the fold increase was determined as 2.09 and the viability was determined as 47.8%.
On to `Cc1ccc(-c2cccc(C(=O)NCc3ccccc3)n2)c2ccccc12`, for which the fold increase is 1.42 and the viability is 98%.

For the origin of these results see PubChem BioAssay AID1956 (SRMLSC, 2009).
